This is an account of results in the RNAGym collection of RNA variant scans (doi:10.7554/elife.90254).

Read counts are not given, so values of variants with three or more changes are uncertain.

B1: LINE1-mini (parent)
chain: GGCAGAGCUCAACACAGCGUGGCAAAGUGGCUGUGGCUAGACUGCC

Variants of B1 are the subject of the series. The experiment in a line: self-cleavage, relative activity (ratio to wild type); higher = more cleavage; in vitro, sequencing; the parent is a self-cleaving ribozyme.
Consider GGCAGAGCUAAACACAGCGUGUCAAAGUGGCUGUGGCUAGACUACG, for which the self-cleavage amounted to 0.01.
Next, GGCAGAGCUAAACACAGCGUGGCAAAGUGUCUGUGGCUGGACUGCC: 0.01.
Take GGCAGAGCUAAACACAGCGUCGCAAACUGGCUGUGGCUAGACUGGC: the self-cleavage worked out at 0.
As to GGCAGAGCUAAACACAGCGUGGCAAAGUGGCUGUUGCUAGACGGCC, the self-cleavage was 0.02.
On to GGCAGAGCUAAACACAGCGUGGCAAAGUAACUGUGGCUAUACUGCC, for which the self-cleavage is 0.02.
Turning to GGCAGAGCUAAACACAGCGUGGCAAAGUAGCUGUGACUAGAAUUCC, the self-cleavage came to 0.01.
Regarding GGCAGAGCUAAACACAGCGUGUCAAAGUGGCCGUGGCUAGACUGCC, the self-cleavage turned out to be 0.02.
The value for GGCAGAGCUAAACACAGCGUGGCAAAGUGGCUAUGGCCAGACUGCC was 0.01.
Regarding GGCAGAGCUAAACACAGCGUGGCAAAGUUGCUGUGGCUAGACUACC, the self-cleavage was determined as 0.01.
Regarding GGCAGAGCUAAACACAGCGUAGCAAAGCGGCUGUGGCUAGUCUGCC, the self-cleavage stood at 0.
The value for GGCAGAGCUAAACACAGCGUAGCUAAGUGGCUGUGGCUAGACGGCC was 0; that for GGCAGAGCUAAACACAGCGUGGCAAAGUGGCUGUUGCUUGACUGCC was 0.02; that for GGCAGAGCUAAACACAGCUUGGCAAAGUGGCUGUGGCUAGGCUGUC was 0.01.
Take GGCAGAGCUAAACACAGCGUCGCAAAGUGGCUGUGGCUAGUCUGCC: the self-cleavage came to 0.03.
The value for GGCAGAGCUAAACACAGCGUGCCAAAGUGGCAGUGGCUAGACUGCC was 0; that for GGCAGAGCUAAACACAGCGUGGCAAAGUCGCUGUGGCUAGGCUGCA was 0; that for GGCAGAGCUAAACACAGCGUGACACAGUGGCUGUGGCUAGACUCCC was 0.
Regarding GGCAGAGCUAAACACAGCGUGUCAAAUUGGCUGUGGUUAGACUGCC, the self-cleavage worked out at 0.02.
The value for GGCAGAGCUAAACACAGCGUGGCAAAGUGCCCGUUGCUAGACUGCC was 0.02.
Turning to GGCAGAGCUAAACACAGCGUGGCAAAGUGUCUGUGGCUAGGCUGCC, the self-cleavage was 0.03.
Next, GGCAGAGCUAAACACAGCGUGGCAAAGUGUCUUUGGCUGGACUGCC: 0; GGCAGAGCUAAACACAGCGUGGCAAAGUGGCUGUGUCUAGACUGCA: 0.06; GGCAGAGCUAAACACAGCGUGGCAAAGUGGCUUUGGCUAAACUGCC: 0.01.
Next, GGCAGAGCUAAACACAGCGUCGCAAUGUGGCUGUGGCUAGACUGCC: 0.13; GGCAGAGCUAAACACAGCGUCCCAAAGUGGCUGUGGCUAGACUGCC: 0.01.
With GGCAGAGCUAAACACAGCGUGGCAAAGUGCCUGUGGCAAGACUGCC, the self-cleavage was 0.11.
GGCAGAGCUAAACACAGCGUGGCAAAGUUGCUGAGGCUAGCCUGCC: the self-cleavage was 0.02.
The value for GGCAGAGCUAAACACAGCGUCGCAAAGUGGCUGUGGCUAGAUUGCA was 0; that for GGCAGAGCUAAACACAGCUUGGCAAAGUGGCUGUAACUAGAGUGCC was 0.02.
The value for GGCAGAGCUAAACACAGCGUGGCAAAGUGGCUGUGUCUAGACUCCC was 0.03.
The value for GGCAGAGCUAAACACAGCGUGGCAAAGUGACUGUGGCUAGUCUGCC was 0.02; that for GGCAGAGCUAAACACAGCGUGCCAAAGUGGCCGCGGCUAGACUGCC was 0.08; that for GGCAGAGCUAAACACAGCGUGGCAAAGUGGCUUUGGCUAGAUUGAA was 0.
With GGCAGAGCUAAACACAGCGUGGCAAAGUGGCUGUAGCUAGACUGCG, the self-cleavage was determined as 0.02.
The value for GGCAGAGCUAAACACAGCUUGGUAAAGUGGCUGUGGCUAGACUGCC was 0.03; that for GGCAGAGCUAAACACAGCGUGGCAAAUUCGCUGUGGCUAGACUGCC was 0.02.
As to GGCAGAGCUAAACACAGCGUGGCAAAUUAGCUGUGGCUAGACUGCC, the self-cleavage was 0.06.
With GGCAGAGCUAAACACAGCGUGUCAAAGUGUCUGUGGCUAGACUGGC, the self-cleavage was 0.01.
Next, GGCAGAGCUAAACACAGCGUAGCAAAGUGUCUGUUGCUAGACUGCC: 0.03.
Next, GGCAGAGCUAAACACAGCGUGCCAAAGAGGCUGUCGCUAGACUGCC: 0.01; GGCAGAGCUAAACACAGCGUGGCAAAGUGGCUGUUGCUAGACUGAC: 0.01; GGCAGAGCUAAACACAGCGUAGCAAAGUGGGUGUGGCUAGACUGCC: 0.03.
Regarding GGCAGAGCUAAACACAGCGUCGAAAAGUGGCUGUGGCUAGACUGCC, the self-cleavage came out at 0.04.
Next, GGCAGAGCUAAACACAGCGUCGCAAAGUGGCUGUGGCUCGACUGCC: 0.09; GGCAGAGCUAAACACAGCGUGGCAAACUGGGUGUGACUAGACUGCU: 0.01; GGCAGAGCUAAACACAGCUUGGGAAAUUGGCUGUGGCUAGACUGCC: 0.02.
Next, GGCAGAGCUAAACACAGCGUGGCAAACUGGCUGCGGCUAGACUGUC: 0.01.
The value for GGCAGAGCUAAACACAGCGUCGCAAAGUGGCUGAGGCUAGACUGCC was 0.02.
In the case of GGCAGAGCUAAACACAGCGUCGCAAAGCGGCUGUGGCUAGACUGCC, the self-cleavage came out at 0.03.
On to GGCAGAGCUAAACACAGCGUAGCAAAGUGGCUAUGGCUAGACUGCC, for which the self-cleavage was found to be 0.01.
The value for GGCAGAGCUAAACACAGCGUGGCAAAUUGCCUGUGGCUAGACUGCA was 0.01; that for GGCAGAGCUAAACACAGCGUGCCAUAGUGGCUGUAGCUAGACUGCC was 0.04.
As for GGCAGAGCUAAACACAGCGUGACAUAGUGGCUGUGGCUAGACUGCC, the self-cleavage came to 0.02.
For GGCAGAGCUAAACACAGCGUGGCAAAAUGGAUGUGGCUAGACUGCC, the self-cleavage is 0.03.
On to GGCAGAGCUAAACACAGCGUAGCAAAGUGGCAGUGGCCAGACUGCC, for which the self-cleavage is 0.01.
The value for GGCAGAGCUAAACACAGCUUUGCAAAGUGGCUGUGGCUAGACUGCC was 0.11.
